# The other results are listed elsewhere or left out. Sequences were assembled here from the parent chain. Values near 0.05 are background.
# B1: TEV protease; numbered along this chain (parent)
# chain: MGESLFKGPRDYNPISSSICHLTNESDGHTTSLYGIGFGPFIITNKHLFRRNNGTLVVQSLHGVFKVKDTTTLQQHLVDGRDMIIIRMPKDFPPFPQKLKFREPQREERICLVTTNFQTKSMSSMVSDTSCTFPSGDGIFWKHWIQTKDGQCGSPLVSTRDGFIVGIHSASNFTNTNNYFTSVPKNFMELLTNQEAQQWVSGWRLNADSVLWGGHKVFMVKPEEPFQPVKEATQL
# Variants of: B1
# Experiment: raw area under fraction-flipped curve 0-4 h after induction (AUC4h, not background-subtracted), DNA-recorder readout of cleavage of the substrate (dimensionless); higher = more cleavage of the substrate by the protease variant
# Settings: temperature: 34 °C; time window: 0-4 h after rhamnose induction
# 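Further: Bxb1 expression induced with 0.2% (w/v) L-rhamnose at OD600 near 0.5, cultures sampled hourly, flipped fraction per protease–substrate barcode pair counted by paired-end Illumina sequencing.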
Variant,area with substrate ENLYFQC,area with substrate ENLYFQD,area with substrate ENLYFQG,area with substrate ENLYFQI,area with substrate ENLYFQK,area with substrate ENLYFQP,area with substrate ENLYFQS,area with substrate ENLYFQT,area with substrate ENLYFQW,area with substrate ENLYFQF,area with substrate ENLYFQH,area with substrate ENLYFQL,area with substrate ENLYFQM,area with substrate ENLYFQN,area with substrate ENLYFQR,area with substrate ENLYFQV,area with substrate ENLYFQY,area with substrate ENLYFQE,area with substrate ENLYFQQ
F95K,0.0613,0.062,0.0663,0.0468,0.053,0.0477,0.0655,0.0512,0.0527,,,,,,,,,,
E103R,0.0939,0.0545,,0.0498,0.0673,,0.0938,0.0368,0.0625,0.0753,0.0665,0.0604,0.0792,0.0668,0.0578,0.0658,0.064,,
I139R,0.11,,0.107,0.0525,0.0638,,0.091,0.0604,0.065,,,0.0538,0.0748,0.073,0.0643,0.0571,0.0588,,
Q105S,0.139,,0.121,0.0555,,0.0591,0.101,0.0692,0.0547,,0.0662,0.0573,0.0873,,0.0411,0.0538,,,
Q146W,0.146,,,0.053,0.0381,,0.152,,0.0724,,,,,0.0993,,0.0441,0.0753,,
K148V,0.104,0.0653,0.091,0.067,0.0766,0.0563,0.101,0.0627,,,0.0653,0.0622,0.0647,0.0523,0.0755,,,0.0566,
G150D,0.0596,0.0558,0.0602,0.051,,,0.0618,0.0439,,,,,0.0644,0.0676,0.0557,,,,
L156T,0.107,0.0598,0.0594,0.0525,0.0551,0.0581,0.0936,0.0687,,,0.0639,0.0544,,0.0775,0.0582,,,,
G162K,0.0863,,0.0516,,0.0574,,0.0954,0.0638,,,,0.0539,0.094,0.0648,0.0616,,,,0.0878
G162W,0.105,,0.0806,0.04,,0.0613,0.0871,,0.0521,,0.0848,0.0384,,,0.0587,0.0468,0.0821,0.0653,0.053
E107R,0.177,,0.107,0.0409,,,0.111,0.0667,0.069,,,0.0604,0.0221,0.0711,,,0.0822,0.0735,
S158F,0.0523,0.0564,0.0498,,0.0509,,0.0518,0.0602,0.0495,,0.0527,0.0348,,,,,0.0613,,
S127C,0.0953,,0.118,0.0574,0.0661,0.0643,0.106,0.0704,0.096,0.0797,0.0768,,,0.0905,0.0687,0.0733,0.103,,0.0969
S127Q,0.124,0.064,0.0061,0.0633,0.0647,,0.11,,0.0652,0.101,,0.0551,0.097,0.0707,0.0622,0.0729,0.0839,,
F133R,0.134,0.0723,0.118,0.0619,0.0593,,0.137,,0.0705,,0.108,0.0637,0.134,0.0813,0.0616,,0.177,,
Q118P,0.114,0.106,0.0835,0.0887,0.035,0.0571,0.109,,,,,0.0552,0.102,0.0847,0.0574,0.0421,,,
Q118K,0.14,,,,,,0.0772,0.0591,0.065,,,0.059,,,0.0545,0.0575,,0.0576,0.0676
T115A,0.12,0.0751,,0.0587,0.0494,,0.0816,,0.0516,0.0766,,,0.0869,,0.0615,,,,
V113I,0.118,0.0865,0.0811,,0.0678,0.0499,0.104,,0.0525,,,,0.0912,0.115,,0.0764,,0.0664,
V165W,0.0514,,,,0.0495,,0.0515,0.0434,0.0521,,,0.0498,0.0635,,0.047,,,,
C152N,0.0963,0.043,0.0532,,,0.0453,0.0573,0.0485,0.0517,0.0642,,0.0603,0.0549,0.041,0.0601,,0.0546,,
P134N,0.0982,0.0595,0.081,0.0428,,0.0656,0.0914,0.0421,0.0507,,0.0758,0.0489,0.0747,0.0583,0.0541,0.0592,0.0915,,
P134V,0.0823,0.0548,,0.0678,0.0685,,0.0835,0.0631,0.0571,0.0578,0.0748,0.0636,0.0517,0.0817,0.0497,0.0543,0.0507,,0.0589
W141E,0.0735,,,,0.0647,0.0603,0.058,0.0627,0.0598,,0.0474,,0.0434,,0.0562,,0.0486,,
N175I,0.0508,,,,,,0.0646,,0.0541,0.0719,,,,0.0604,0.0636,0.0572,,,
T174W,0.105,0.0777,0.133,0.0612,,0.0553,0.106,,,,0.0878,,,,,0.054,0.0673,0.0453,
D149L,0.0898,,0.0956,0.0609,0.0637,,0.0816,0.0562,0.0475,0.053,,0.0589,,,0.0604,0.0593,0.0642,,0.0548
I110Y,0.0616,0.0626,,,,,0.0653,,,,,,,0.0652,,,0.0583,,
S169P,0.0589,,0.0632,0.0613,0.0661,0.0324,0.0582,0.0517,,,0.0695,0.0556,,0.0552,0.0578,0.0563,0.0554,0.0644,0.057
T119V,0.121,0.0692,0.111,,,,0.101,0.0691,0.068,,0.0753,0.0658,,,0.0445,,,,

# — the supplement of paper PMC12217912
